The record followed here is PubChem BioAssay AID463173 (ICCB-Longwood Screening Facility, Harvard Medical School, 2010).

Screen size: about 52,000 compounds; about 1,700 (3.3%) were called active. No stated cut-off is given here; in the data, active means survival mostly below about 52% (no sharp cut-off); inactive means mostly above about 56%. This is one part of the list.

This assay has as its system Wild type. Put plainly: growth inhibition of S. aureus wild type versus tarO mutant, primary screen, teichoic acid synthesis inhibitors, RN4220, OD600 (AID 463173). Conditions: S. aureus RN4220 wild type/DeltatarO growth, OD600, 18 h, hits give low values, screened at 18.75 µg/mL (by protocol).
Turning to `CC(=O)Nc1ccccc1-c1nc2cc(C#N)c(C#N)cc2[nH]c1=O`, the survival is inactive: 108%.
Next, `O=C(CC1N=C2c3ccccc3N=C(SCc3ccc(F)cc3)N2C1=O)NCc1cccs1` (stereo unspecified): inactive: 132%; `COc1ccc2c(c1)CCc1c(C(=O)Nc3ccccc3C(F)(F)F)noc1-2`: inactive: 145%.
Under `CCN(CC)C(=O)CN1CCN(c2cccc(Cl)c2)CC1` stands inactive: 109%; under `COc1cccc(CNC(=O)Cn2cc3c(n2)-c2c(oc(C(=O)N4CCCC4)c2C)CC3)c1`, inactive: 86%; under `CCc1ccc(NC(=O)Cn2ncc3c4ccccc4n(C)c3c2=O)cc1`, inactive: 89%.
Consider `CCn1c(SCC(=O)c2ccc([N+](=O)[O-])cc2)nnc1-c1ccc(Cl)cc1`, for which the survival is inactive: 69%.
Next, `CCOC(=O)c1scc(-c2ccc(C)cc2)c1S(=O)(=O)Nc1cc(Cl)ccc1OC`: active: -6%; `CC(C)Oc1ccc(C2CC(=O)N(C)C2=O)cc1` (stereo unspecified): inactive: 115%; `CCCCn1cc(S(=O)(=O)c2ccc(OC)cc2)c(=O)c2cc(F)c(F)cc21`: inactive: 84%.
Turning to `COC(=O)Cn1c(CN2CCN(c3ccc(OC)cc3)CC2)nc2c1c(=O)[nH]c(=O)n2C`, the survival is inactive: 79%.
Next, `CCOc1ccc(NC(=O)c2cc(S(=O)(=O)NC3CCCC3)ccc2F)cc1`: inactive: 68%; `CCOC(=O)c1c(S(=O)(=O)NCC(=O)Nc2cccc(CC)c2)c(C)n(C)c1C`: inactive: 69%.
Consider `CCc1ccc(NC(=O)CSc2nc(-c3ccccc3)c(C#N)c(=O)[nH]2)cc1`, for which the survival is inactive: 95%.
For `Clc1cccc(-c2csc(-c3nc(-c4ccc(Br)s4)cs3)n2)c1`, the survival was inactive: 76%.
Under `CCN(CC)C(=O)c1sc2c(c1C)c(=O)n(-c1ccccc1)c(=O)n2Cc1cc(=O)n2ccccc2n1` stands inactive: 60%; under `CC(C)(C)NC(=O)C1N(C2CC2)C(=O)C2C(C(=O)NCc3ccccc3)C3C=CC21O3` (stereo unspecified), inactive: 103%.
Under `COc1ccc(NC(=O)c2ccc3c(c2)c(C)c(C)n3Cc2ccc(F)cc2)c(OC)c1` stands inactive: 59%; under `COc1ccc(C2=Nn3c(nc4sc(C(=O)Nc5cccc(C)c5)c(C)c4c3=O)SC2)cc1`, inactive: 111%.
Next, `COc1ccc(-c2nn3c(-c4ccc(C)cc4)nnc3c3ccccc23)cc1`: inactive: 70%; `COc1cccc(CN2C(=O)c3ccccc3Sc3ccc(C(=O)NCCc4ccc(Cl)cc4)cc32)c1`: inactive: 89%.
For `COc1ccc(NC(=O)c2cc3c([nH]c2=O)CC(c2ccccc2)CC3=O)cc1` (stereo unspecified), the survival is inactive: 63%.
Next, `CCCOc1ccc(OC(=O)c2c(-c3ccccc3Cl)noc2C)cc1`: inactive: 72%; `COc1ccc(NC(=O)Cn2c(=O)n(-c3ccc(CC(=O)NCC4CCCO4)cc3)c(=O)c3ccccc32)c(OC)c1` (stereo unspecified): inactive: 90%.
Take `O=C(Nc1nccs1)c1cccc(C(=O)Nc2nccs2)c1`: the survival was inactive: 123%.
For the compound `CCc1ccc(OCC(=O)N(Cc2ccco2)Cc2ccco2)cc1`, the survival is inactive: 63%.
Under `Cc1cc(C)cc(OCc2cc(=O)n3cc(C)sc3n2)c1` stands inactive: 67%.
Next, `COc1cc(NC(=O)c2ccco2)c(OC)cc1NC(=O)CSc1ncc(-c2ccc(F)cc2)[nH]1`: inactive: 103%.
Next, `COc1ccccc1NC(=O)CCn1nc(-c2ccccc2)c2ccccc2c1=O`: active: 4%; `O=C(C1CCN(c2nc3ccccc3[nH]2)CC1)N1CCN(c2ccccc2)CC1`: inactive: 85%.
Consider `Cc1cc2c(cc1C)C(C)CC(C)(C)N2` (stereo unspecified), for which the survival was inactive: 118%.
Under `CCOC(=O)c1c(C)n(-c2ccccc2)c2ccc(OC(=O)c3ccc(OCC)c(OCC)c3)cc12` stands inactive: 134%; under `Cc1cccc(-c2noc(-c3ccc(NCC4CCCO4)c([N+](=O)[O-])c3)n2)c1` (stereo unspecified), inactive: 113%.
Take `Cc1cccc(NCc2nnc3n2CCCCC3)c1C`: the survival is inactive: 70%.
Under `CCCN1CCN(CCCNC(=O)c2ccc3c(c2)sc2nc(-c4ccc(C)cc4)cn23)CC1` stands inactive: 20%; under `CN(C(=O)c1ccc2c(c1)N(Cc1ccccc1F)C(=O)c1ccccc1S2)C1CCCCC1`, inactive: 70%.
Under `COc1ccccc1N1CCN(c2nc3ccc(C)cc3nc2-n2nc(C)cc2C)CC1` stands active: 0%.
Under `O=C(Nc1c(C(=O)N2CCC(N3CCCCC3)CC2)oc2ccccc12)c1c(F)cccc1F` stands inactive: 73%; under `Cc1ccc(-c2nnc(Nc3ccc(Cl)cc3)c3ccccc23)cc1S(=O)(=O)N1CCOCC1`, inactive: 85%.
For the compound `CN(C)S(=O)(=O)c1ccc2c(c1)N(CC(=O)N1CCCCC1)CCS2`, the survival was inactive: 64%.
Under `Cn1cc(S(=O)(=O)c2ccccc2)c(=O)c2cc(F)c(N3CCN(c4ccc(F)cc4)CC3)cc21` stands inactive: 119%.
Under `CC(=O)Nc1ccc(NC(=O)C(Cc2ccccc2)N2Cc3ccccc3C2=O)cc1` (stereo unspecified) stands inactive: 72%; under `Cc1cccc(N2CCN(C(=O)c3c(C)oc4nc(C)nc(N5CCCC5)c34)CC2C)c1` (stereo unspecified), inactive: 69%.
Under `Cc1ccc(NC(=O)Cn2c(=O)n(CCC(=O)NCCc3ccccc3)c(=O)c3ccccc32)cc1` stands inactive: 69%; under `O=C(Cn1cnc(S(=O)(=O)N2CCCC2)c1)Nc1ccccc1`, inactive: 126%; under `COc1ccc(CNC(=O)CCc2nc3cccnc3n2Cc2ccccc2)cc1`, inactive: 119%.
With `CCOc1ccc(CCNC(=O)C(C)n2nc(C)n3c(cc4occc43)c2=O)cc1OCC` (stereo unspecified), the survival was inactive: 80%.
Next, `Cc1ccc(Cl)cc1N1CCN(C(=O)c2cn(C)c3ccc(S(=O)(=O)N(C)C4CCCCC4)cc3c2=O)CC1`: inactive: 129%.
`COc1cccc(-n2c(SCC(=O)N3CCCCC3)nc3c([nH]c4ccccc43)c2=O)c1`: the survival was active: -3%.
Next, `CC1CCC(N2CC(=O)N(C3CCCC3)C(c3ccc(Cl)cc3)C2=O)CC1` (stereo unspecified): inactive: 71%.
In the case of `Cc1ccc(C)c(CN2C(=O)c3ccccc3Sc3ccc(C(=O)NCc4cccs4)cc32)c1`, the survival was inactive: 76%.
Consider `CC(=O)c1cccc(NC(=O)c2noc3c2CSc2ccccc2-3)c1`, for which the survival is inactive: 88%.
Under `COc1ccc(NC(=O)c2c(N)c(C(=O)c3ccc(C)cc3)n3ccccc23)cc1OC` stands inactive: 98%; under `Cc1ccc(C)c(NC(=O)C2CCN(c3nn4c(=O)cc(C)nc4s3)CC2)c1`, inactive: 96%; under `CCN1CCN(Cc2nc3cc(NC(=O)c4ccccc4[N+](=O)[O-])ccc3n2CC)CC1`, inactive: 86%.
Next, `Cc1cc(C)c2c(-n3cccc3)c(C(=O)NCCCN3CCCCC3)sc2n1`: inactive: 86%; `COc1ccc(NC(=O)Cn2cc(C#N)c3ccccc32)cc1`: inactive: 115%.
Next, `COc1ccc(NC(=O)c2ccc3c(c2)c(C)c(C)n3Cc2ccc(F)cc2)cc1`: inactive: 82%; `O=C(CCc1ccccc1)NCCc1csc(-c2cccc(F)c2)n1`: inactive: 68%.
Take `Cc1ccccc1OCCSc1nc(C)c(Cc2ccccc2)c(=O)[nH]1`: the survival was inactive: 107%.
Next, `O=C(C1CCCN(S(=O)(=O)c2ccccc2)C1)N1CCCc2ccccc21` (stereo unspecified): inactive: 103%; `COc1cccc(CNC(=O)C(C)n2ccc3cc(S(=O)(=O)N4CCCCCC4)ccc32)c1` (stereo unspecified): inactive: 99%; `COc1ccc(-c2nn(C)c3sc(C(=O)N4CCN(c5ccccc5F)CC4)cc23)cc1OC`: inactive: 81%.
Under `CC(=O)Nc1cc(C)ccc1C` stands inactive: 109%; under `Cc1ccc(-c2[nH]c3ccccc3c2SCCNC(=O)c2ccc(S(=O)(=O)N3CCOCC3)cc2)cc1`, inactive: 81%; under `COc1ccccc1-c1cc(NC(=O)COc2ccccc2Cl)n(-c2ccccc2)n1`, inactive: 73%.
For `Cc1cccc2c1-c1sc(C(=O)NCCc3ccc(Cl)cc3)cc1CO2`, the survival was inactive: 101%.
Turning to `CC1CCN(C(=O)c2cnn(-c3ccc(Cl)cc3)c2C2CCN(C(=O)OC(C)(C)C)CC2)CC1`, the survival was inactive: 71%.
Under `COc1cccc(CNC(=O)CN2C(=O)CSc3ccc(S(=O)(=O)N(C)C)cc32)c1` stands inactive: 88%.
Next, `Cc1ccc(-c2nc3sccn3c2Nc2ccccc2C)cc1`: inactive: 49%; `CN(C)C(=O)CCSc1nc2cc(Cl)ccc2o1`: inactive: 116%; `Cn1c(SCC(=O)Nc2ccccc2)nc2ccccc2c1=O`: inactive: 105%.
Under `Cc1c(C(=O)OC2CCCC2)[nH]c2c1C(=O)CC(c1ccc(C(C)(C)C)cc1)C2` (stereo unspecified) stands inactive: 89%.
As to `COc1nc(-c2ccccc2)ccc1-c1noc(C(C)C)n1`, the survival is inactive: 88%.
For the compound `CC(C)(C)C1CCc2c(sc(NC(=O)c3cccc(Cl)c3)c2C(N)=O)C1` (stereo unspecified), the survival is inactive: 75%.
Under `COc1ccc(NC(=O)CSc2oc(-c3ccc(C)cc3)nc2S(=O)(=O)c2ccc(C)cc2)c(OC)c1` stands inactive: 80%; under `CCC(=O)Oc1c(Sc2ccc(Cl)cc2)c(C)nn1C(C)(C)C`, inactive: 60%; under `CCN(CCCNC(=O)c1cc2cc3cc(OC)ccc3nc2s1)c1cccc(C)c1`, inactive: 73%.
Next, `Cc1cc2c(cc3c(SCc4ccc(Cl)cc4)nnc(C)n32)o1`: inactive: 82%.
Turning to `CSCCC(NS(=O)(=O)c1ccc2c(c1)oc(=O)n2C)C(=O)N1CCN(c2cc(Cl)ccc2C)CC1` (stereo unspecified), the survival is inactive: 59%.
Next, `Cc1cccc(N2CCN(C(=O)c3nn(C)c4c3CSc3ccccc3-4)CC2C)c1` (stereo unspecified): inactive: 87%; `CCN1CCN(Cc2c(O)ccc3oc(C)c(C(=O)Nc4ccc(OC)c(Cl)c4)c23)CC1`: inactive: 88%.
Next, `CCOC(=O)c1ccccc1NC(=O)CSc1nc2ncccc2o1`: inactive: 71%; `CCCC1(C(=O)OC)NC(c2ccc(OC)c(OC)c2)C2C(=O)N(c3ccc4c(c3)OCO4)C(=O)C21` (stereo unspecified): inactive: 100%.
Under `COc1ccc2c(c1)c1c(c(=O)n(-c3cccc(C)c3)c(=O)n1CC(=O)Nc1c(C)cc(C)cc1C)n2C` stands inactive: 139%; under `Cc1cc(C)cc(NC(=O)CN2C(=O)COc3ccc(S(=O)(=O)Nc4ccccc4)cc32)c1`, inactive: 98%.
